Test results reported in the supplement of paper PMC10681739.
In all, about 4,100 sequences were measured (“arbitrary fluorescence units”: median about 780, highest 2% from about 22,000 on). This is one part of the list.

target: T1, ETS1 (UniProt P14921); assay: ETS1 binding intensity (PBM fluorescence), ETS1 alone (arbitrary fluorescence units); higher = stronger binding; conditions: ETS1 concentration 1 nM; RUNX1 concentration 0 nM
T1 sequence: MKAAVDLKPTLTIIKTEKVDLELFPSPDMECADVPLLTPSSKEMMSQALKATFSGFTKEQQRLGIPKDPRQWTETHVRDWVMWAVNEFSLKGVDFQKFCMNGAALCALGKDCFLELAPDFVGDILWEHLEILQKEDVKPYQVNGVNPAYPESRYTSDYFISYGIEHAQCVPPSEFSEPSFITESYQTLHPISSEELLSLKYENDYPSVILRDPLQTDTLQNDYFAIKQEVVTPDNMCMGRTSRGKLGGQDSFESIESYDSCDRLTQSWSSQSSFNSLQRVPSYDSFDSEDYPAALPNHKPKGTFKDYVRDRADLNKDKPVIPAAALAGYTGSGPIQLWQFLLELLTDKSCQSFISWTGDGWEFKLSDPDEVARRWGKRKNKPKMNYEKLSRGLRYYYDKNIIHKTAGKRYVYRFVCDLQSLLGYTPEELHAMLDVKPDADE
Outline: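 Full-length recombinant human ETS1 (1 nM, no RUNX1) was incubated, per standard PBM protocols, on double-stranded Agilent 4 × 180k arrays of 36-bp genomic probes whose RUNX1 partner site was mutated. Bound ETS1 was detected with anti-ETS1 antibody (Cell Signaling Technology 14069) and Alexa488-conjugated secondary antibody, then scanned on a GenePix 4400A. Binding level is spot fluorescence intensity, summarised over replicate spots (four printed per sequence) and not normalised.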

Going from AGCTACCCCAGCCCAGGCCAGAGCAGGAAGGGTAGA to TGGTCCTTTGTGAGCGTGCTGTCAGGAAGATGACAG, the ETS1 binding intensity rises from 330 to 338.

First: ATTTCAGTTGAAAGCACTGTTCTTCCTGTTTCTCTG
Second: CTACATTTCCCACAGGCGCCCGGGCGCTTTTCGAAC
The ETS1 binding intensity of the first is higher: 1150 for the first, 471 for the second.

First: TCGCCTCAGCCCTCATATTCAACCCGGAAGCCTGGG
Second: GGGGAACGGAAGCTGCTGTCGTTACTGGCAGTTGTC
The ETS1 binding intensity of the first is lower: 386 for the first, 2950 for the second.

Going from CCGAGAAGTGGAATCGCCAGGCGGAAGGGGCGGAGT to CTTCTGGCGGAAGCGGCACAAGGCGCAGTACAGCGC, the ETS1 binding intensity rises from 515 to 2170.

Compared with GCCTTACGGCGAGGCGGGCCGGAGCGACGGAAAGCT, GGTCTAAGAGGAAGGATGGGGACCAGCCCTCAGGCG is higher in ETS1 binding intensity: 298 for the first, 426 for the second.

Compared with GAGGTGCTGCAGGCCAGCCAGCTGTCATCCTGTCTG, ACACAGGAAGGACGCACGCTCCCGCCCCAACCCCAT is higher in ETS1 binding intensity: 362 for the first, 1500 for the second.

Compared with GCTGAGTGCAGGTGGCCTGGGCGGAAGGCTCAGCGG, CCTACCTCGGAGAGAAGGCTCTTTATTTCCTAGCCG is lower in ETS1 binding intensity: 336 for the first, 317 for the second.

First: CATGTTGTCAACTCGATTTGTCACAGGAAGTACCCA
Second: GAGGTGCCGGAAGCCAGTAGGTGCTTTTGGGTGCTA
The ETS1 binding intensity of the first is lower: 958 for the first, 1880 for the second.

Going from GGGCGGGGCATTTTGGGTAAGAGGAAACGCTGGGGC to TCCGCGCGGACGGCCGCGTTGTAGGGGACGGACGTG, the ETS1 binding intensity falls from 687 to 325.

First: TTGAAAAGCACGACTCCTGACACAGTAGTTCCGCCT
Second: TGAACTCCGCCCAGCGCGATCCGGAAGCCTAGCGCC
The ETS1 binding intensity of the first is lower: 361 for the first, 443 for the second.

Compared with ATGGAAAGGAAGTCGGTGGGAATCCGCCTCAGCGGT, TCGCTGGGACAGCGGCTGGGCGTCCGGGGGCGGGGC is lower in ETS1 binding intensity: 1590 for the first, 388 for the second.

First: TCAGAACCAGGAAACTGAAGGCGATTACTCCACATA
Second: CTGCTTGAGGGTGGAGGGGAGCTTCCGAAGGAGGCC
The ETS1 binding intensity of the first is higher: 782 for the first, 536 for the second.

First: GTGTTTCCTCTTTGTTTTGGGGCTGGGGTTGTCACA
Second: GGGCTTCGGCGCTGGAACTGGACCAATCCGGAATCG
The ETS1 binding intensity of the first is higher: 4800 for the first, 275 for the second.

Compared with TCAAAGCGGCGGGGTTTCATTTCCTGTTCCTGAACA, TGGCGGGAGAACTTCCCCCTGTGCGCTCGCGACGTG is lower in ETS1 binding intensity: 12300 for the first, 775 for the second.

Going from ACAGGAAATGACATCAGAATCTCCAAACTACAACCA to TGGCAGGATGCCGTTAAATATGTAATCACATGTCTC, the ETS1 binding intensity falls from 2200 to 703.

First: GGGCTAGCGGATCTGGCCGCCGCTTCCCGTCCAGGG
Second: GGGTGGCGATCACGTGCCCAGAACGTCCGGCGTTCG
The ETS1 binding intensity of the first is higher: 699 for the first, 549 for the second.

Compared with GGCTCGGCAAACATCCGGCTCCGCTCTGGAACGGGA, GCTTTTTCTTGGTAGTTGGGCAGGAAGCCTCTAGAG is lower in ETS1 binding intensity: 17500 for the first, 589 for the second.

Compared with CAGGTTGTTGAGGATGTGGAGAAACAGCAACCTCGT, AGGCCGCTTCCTCCCACATGAAATCGCAGGCTTCGG is higher in ETS1 binding intensity: 574 for the first, 3450 for the second.

First: GGGGGAAGCTTCCTGAGGTGAAATAGAGCGCTGTGC
Second: GTTGGTTTCCTCTAGACTCTCGTGGACACACCGTTC
The ETS1 binding intensity of the first is higher: 2740 for the first, 2210 for the second.

First: AGGCGCGCTCTTACGGCGTCACGGAAGGCGCGCTCT
Second: AGGAGGTGCTCAGGCGGAGGCCAGGATGTGTGCAAA
The ETS1 binding intensity of the first is lower: 336 for the first, 413 for the second.

Going from CCAGCCGGAAGCCCCGCCCCCTAGAGGCACCGTGGA to GAGGTTGGGAAGTTCTTCCTTTGGTCTGACAACAGT, the ETS1 binding intensity falls from 3670 to 800.

Going from ACCCCTTCAGGAAGCACTCACCTACAGCCAGGCTCC to ATCTTCAGGAAGCGGTATCAACCTGAAAAGCACCAC, the ETS1 binding intensity rises from 489 to 1060.

Going from CTAGCCCAGAAAGCTGCAGCAGCTTCCTCAGGGACG to GCAGCGCCGGTTCAGCTCCAACCTTCCTGGAGACCC, the ETS1 binding intensity falls from 394 to 381.

First: CCTGACTCTGGGTTTCCTCCCAGCCACGGACACCTG
Second: CGGGGCCTGTGATTACTACACTCCACTTCCTTATGA
The ETS1 binding intensity of the first is higher: 625 for the first, 473 for the second.

Going from CGTGAGCCACGGCGCCCGGCCTCGCCCTTCCTGAAG to GCGGCACACCGTGACTGCTAATTAGCCCGGAAGCTG, the ETS1 binding intensity rises from 353 to 423.

Compared with AAAAAGCCGGATGTGAAGGCTGGGGTTCTCAACCCG, CGAGAAGGAGGTGGGCAAGGAACGGAAGCCGGGAGG is lower in ETS1 binding intensity: 11600 for the first, 553 for the second.

First: TGCTGCCCAGCACCGTAAGGACACGGATGCCCCGCC
Second: TCTGGGCTGTCGTTACAAGCAGGAAGTGGCCATGGC
The ETS1 binding intensity of the first is lower: 319 for the first, 4610 for the second.

First: CAAGTGTACATGTAGTTATAACTTCCTGTGCTGCCT
Second: AGCGCCTTACCCTCGGCACACCCATTTCCTGACCCC
The ETS1 binding intensity of the first is higher: 3350 for the first, 624 for the second.

Going from CGCCGAACTTCCGGCAGTAAATTCCGTGGATTCCCG to GGCAGACAGTAAATCGCGGCGTTTCCTGGAGGGCGC, the ETS1 binding intensity falls from 27100 to 984.

Compared with CGCCTACCCCTTCCTGAGGCGGGGGCGGATTCTCGA, CATCATGAGAACCTCACTCACCGAATCCGGCACCCA is lower in ETS1 binding intensity: 1170 for the first, 409 for the second.

First: GGCGCGCTCGGGGTTAACCCGGAGCGGAAGGATCCC
Second: TGGAATTGAAAGGAAGCTGGCGCCACCGAAGAGGAC
The ETS1 binding intensity of the first is lower: 382 for the first, 587 for the second.

First: GGGTCTCCAGGAAGCCACTCACCCCAAACTTTGACA
Second: CTCTGCTTCCTGTCTTTGAATGCCTCTGTGATTTTC
The ETS1 binding intensity of the first is lower: 508 for the first, 13400 for the second.

First: TCATTTCCTCTGGTGTTATTGTGTTGGGGTTTTAAG
Second: AGCAGCATAGTCCACAAGTTTCCTGTGTTTGCATCT
The ETS1 binding intensity of the first is higher: 8650 for the first, 1480 for the second.

First: CGCCGGACGTAGTGACGTAGCGCGCAGCTGCAGCGG
Second: CCTCACCCAGGAAGTGGCTGCTGCTGTCTCAGGGTT
The ETS1 binding intensity of the first is lower: 1130 for the first, 2170 for the second.

Going from CTCTGTGCCCTGCCCCAACAGACAGGATGTGACTTC to GTCTTCCTTCCTGAGAATCTTATCCACCAGCTTGCC, the ETS1 binding intensity rises from 988 to 2620.

First: CCTCATCCTGAGTCTGAGAGCTGCAGCTCGCACAGA
Second: CTCCACCTCAGGGCTGGGCTGCCACATCCCATTCAT
The ETS1 binding intensity of the first is higher: 1950 for the first, 434 for the second.

First: CCCTTTTCCTTCCGGCCTGTGCAGCTTATAAGATCT
Second: TGAGAGGCAGTGGATTCTCTGGCCAGGAAATTGAGG
The ETS1 binding intensity of the first is higher: 8530 for the first, 376 for the second.

Compared with GGTCGCTCTGGTGACGGGGGAGGAAATTCTGTCCGT, ACATTTCCTTTTGGTATTTAAAGTAATCACACAGAA is higher in ETS1 binding intensity: 512 for the first, 9870 for the second.

First: ATGCCTGGGGTCCCAGCTACACAGGAAGCTGAGGTG
Second: CTGGAATCCACCTCTCGCTCCATTTCCCAGCACCCC
The ETS1 binding intensity of the first is higher: 707 for the first, 379 for the second.

Compared with GACAGGATACAAGAATTCCGCGGACTGCCGTAGTCG, GGAGGAAGAGAGGAAACGGGGGCGGGCGCCGCTTCT is higher in ETS1 binding intensity: 806 for the first, 1710 for the second.
